This is an account of results in a collection of fitness landscapes (doi:10.1016/j.celrep.2020.107928).

The full ranking holds about 81,000 sequences; the median of “one-hybrid fitness for binding parS DNA” is about -0.17, and the highest 2% start at about 0.51. This is one part of the list. Where only a bound is given, the exact number is not on record here.

Sequences and labels used below:
B1: Caulobacter ParB omega fusion; a variant is named by its letters at X, in order, B8GW30 (parent)
chain: MESVVVGEPGMSEGRRGLGRGLSALLGEVDAAPAQAPGEQLGGSREAPIEILQRNPDQPRRTFREEDLEDLSNSIREKGVLQPILVRPSPDTAGEYQIVAGERAWRAAQRAGLKTVPIMVRELDDLAVLEIGIIENVQRADLNVLEEALSYKVLMEKFERTQENIAQTIGKSXSHVANXMRLLXLPDEVQSYLVSGELTAXHARAIAAAADPVALAKQIIEGGLSVRETEALARKAPNLSAGKSKGGRPPRVKDTDTQALESDLSSVLGLDVSIDHRGSTGTLTITYATLEQLDDLCNRLTRGI

Variants of B1 are the subject of this assay. Kind of assay: one-hybrid fitness for binding parS DNA (scaled: cognate 1, non-cognate 0); higher = stronger binding. The note with it: with parS DNA site. In outline: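 Pre- and post-selection plasmids were Illumina-sequenced, three replicate libraries were pooled, and any variant with under 10 reads was removed. The libraries were Caulobacter ParB with four specificity codons randomised, selected in E. coli USO through a HIS3 reporter whose site is 19 bp from the promoter. Cells grew 48 hours at 37°C on M9 without histidine, with 0.1 mM IPTG and 5 mM 3-AT. Fitness is the log change in variant-to-wild-type read ratio, rescaled against cognate and non-cognate.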
Regarding LAGV, the “one-hybrid fitness for binding parS DNA” value was at most 0.2.

Regarding GLTC, the “one-hybrid fitness for binding parS DNA” value is at most 0.2.

With PTIV, the “one-hybrid fitness for binding parS DNA” value is at most 0.2.

Turning to YLAK, the “one-hybrid fitness for binding parS DNA” value is at most 0.2.

Consider CVCR, for which the “one-hybrid fitness for binding parS DNA” value is at most 0.2.

For TSFA, the “one-hybrid fitness for binding parS DNA” value is at most 0.2.

As for KMTC, the “one-hybrid fitness for binding parS DNA” value is at most 0.2.

With HSGV, the “one-hybrid fitness for binding parS DNA” value is at most 0.2.

For IGTG, the “one-hybrid fitness for binding parS DNA” value is at most 0.2.

As to SGDR, the “one-hybrid fitness for binding parS DNA” value was at most 0.2.

As to DNCG, the “one-hybrid fitness for binding parS DNA” value was at most 0.2.

Consider RVCD, for which the “one-hybrid fitness for binding parS DNA” value was at most 0.2.

Regarding VSRA, the “one-hybrid fitness for binding parS DNA” value is at most 0.2.

In the case of RKVV, the “one-hybrid fitness for binding parS DNA” value was at most 0.2.

As for GTGV, the “one-hybrid fitness for binding parS DNA” value was at most 0.2.

Turning to FAST, the “one-hybrid fitness for binding parS DNA” value was at most 0.2.

Consider RSKY, for which the “one-hybrid fitness for binding parS DNA” value amounted to 0.609.

As for ILCG, the “one-hybrid fitness for binding parS DNA” value is at most 0.2.

Turning to SMDT, the “one-hybrid fitness for binding parS DNA” value is at most 0.2.

As to ILKL, the “one-hybrid fitness for binding parS DNA” value was at most 0.2.

Regarding LHDV, the “one-hybrid fitness for binding parS DNA” value is at most 0.2.

As for CLVG, the “one-hybrid fitness for binding parS DNA” value is at most 0.2.

With PQEL, the “one-hybrid fitness for binding parS DNA” value was at most 0.2.

Regarding FHCS, the “one-hybrid fitness for binding parS DNA” value was at most 0.2.

Turning to SSSF, the “one-hybrid fitness for binding parS DNA” value was at most 0.2.

For EGRH, the “one-hybrid fitness for binding parS DNA” value is at most 0.2.

Turning to ITES, the “one-hybrid fitness for binding parS DNA” value was at most 0.2.

Turning to VRGL, the “one-hybrid fitness for binding parS DNA” value is at most 0.2.

For the variant QWPE, the “one-hybrid fitness for binding parS DNA” value was at most 0.2.

Turning to QMQL, the “one-hybrid fitness for binding parS DNA” value was at most 0.2.

Take PYTV: the “one-hybrid fitness for binding parS DNA” value was at most 0.2.

As for KTYR, the “one-hybrid fitness for binding parS DNA” value was at most 0.2.

Take VMRR: the “one-hybrid fitness for binding parS DNA” value was at most 0.2.

YSST: the “one-hybrid fitness for binding parS DNA” value is at most 0.2.

Turning to YHGF, the “one-hybrid fitness for binding parS DNA” value is at most 0.2.

In the case of YRPP, the “one-hybrid fitness for binding parS DNA” value was at most 0.2.

With DGTT, the “one-hybrid fitness for binding parS DNA” value is at most 0.2.

As to RKQT, the “one-hybrid fitness for binding parS DNA” value was 0.729.

As to QKAS, the “one-hybrid fitness for binding parS DNA” value was at most 0.2.

On to KVSI, for which the “one-hybrid fitness for binding parS DNA” value was at most 0.2.

RWYD: the “one-hybrid fitness for binding parS DNA” value is at most 0.2.

With RIHA, the “one-hybrid fitness for binding parS DNA” value came out at 0.574.

WMFS: the “one-hybrid fitness for binding parS DNA” value was at most 0.2.

Take HIFG: the “one-hybrid fitness for binding parS DNA” value is at most 0.2.

For the variant TDIG, the “one-hybrid fitness for binding parS DNA” value was at most 0.2.

On to QAWK, for which the “one-hybrid fitness for binding parS DNA” value was at most 0.2.

For the variant HSPM, the “one-hybrid fitness for binding parS DNA” value was at most 0.2.

In the case of PLSI, the “one-hybrid fitness for binding parS DNA” value was at most 0.2.

For QSDT, the “one-hybrid fitness for binding parS DNA” value is at most 0.2.

As for SQPY, the “one-hybrid fitness for binding parS DNA” value is at most 0.2.

For the variant DTRD, the “one-hybrid fitness for binding parS DNA” value was at most 0.2.

NKPY: the “one-hybrid fitness for binding parS DNA” value is at most 0.2.

Take MSWR: the “one-hybrid fitness for binding parS DNA” value is at most 0.2.

As for TILR, the “one-hybrid fitness for binding parS DNA” value is at most 0.2.

Consider PDGM, for which the “one-hybrid fitness for binding parS DNA” value was at most 0.2.

Turning to VRVY, the “one-hybrid fitness for binding parS DNA” value was at most 0.2.

For PSRE, the “one-hybrid fitness for binding parS DNA” value is at most 0.2.

In the case of YETW, the “one-hybrid fitness for binding parS DNA” value is at most 0.2.

Regarding YYDS, the “one-hybrid fitness for binding parS DNA” value is at most 0.2.

In the case of SCHL, the “one-hybrid fitness for binding parS DNA” value was at most 0.2.

As for RYAI, the “one-hybrid fitness for binding parS DNA” value is at most 0.2.

Take TTYA: the “one-hybrid fitness for binding parS DNA” value was at most 0.2.

With QGHR, the “one-hybrid fitness for binding parS DNA” value was at most 0.2.

In the case of CIDS, the “one-hybrid fitness for binding parS DNA” value is at most 0.2.

QNTR: the “one-hybrid fitness for binding parS DNA” value was at most 0.2.

On to EQKR, for which the “one-hybrid fitness for binding parS DNA” value is at most 0.2.

On to APVW, for which the “one-hybrid fitness for binding parS DNA” value is at most 0.2.

For MDNS, the “one-hybrid fitness for binding parS DNA” value was at most 0.2.

Take TYWS: the “one-hybrid fitness for binding parS DNA” value was at most 0.2.

With DRPM, the “one-hybrid fitness for binding parS DNA” value is at most 0.2.

For WQLY, the “one-hybrid fitness for binding parS DNA” value was at most 0.2.

Consider TEKV, for which the “one-hybrid fitness for binding parS DNA” value is at most 0.2.

In the case of IYTN, the “one-hybrid fitness for binding parS DNA” value was at most 0.2.

Take NQIS: the “one-hybrid fitness for binding parS DNA” value was at most 0.2.

For the variant SSHC, the “one-hybrid fitness for binding parS DNA” value was at most 0.2.

Regarding TMQE, the “one-hybrid fitness for binding parS DNA” value is at most 0.2.

Turning to NKTL, the “one-hybrid fitness for binding parS DNA” value was at most 0.2.

For the variant GYMT, the “one-hybrid fitness for binding parS DNA” value was at most 0.2.

With HANS, the “one-hybrid fitness for binding parS DNA” value was at most 0.2.

With PPYR, the “one-hybrid fitness for binding parS DNA” value was at most 0.2.

With LHCL, the “one-hybrid fitness for binding parS DNA” value is at most 0.2.

Turning to HNVL, the “one-hybrid fitness for binding parS DNA” value was at most 0.2.

Take YDLI: the “one-hybrid fitness for binding parS DNA” value was at most 0.2.

On to RNSK, for which the “one-hybrid fitness for binding parS DNA” value was at most 0.2.

GCKE: the “one-hybrid fitness for binding parS DNA” value is at most 0.2.

Consider QQPQ, for which the “one-hybrid fitness for binding parS DNA” value was at most 0.2.

Take FGRH: the “one-hybrid fitness for binding parS DNA” value was at most 0.2.

Consider VQLW, for which the “one-hybrid fitness for binding parS DNA” value is at most 0.2.

With PYKQ, the “one-hybrid fitness for binding parS DNA” value was at most 0.2.

Take SRRW: the “one-hybrid fitness for binding parS DNA” value is at most 0.2.

As to RGSH, the “one-hybrid fitness for binding parS DNA” value is at most 0.2.

Regarding DAMD, the “one-hybrid fitness for binding parS DNA” value was at most 0.2.

Consider TFYE, for which the “one-hybrid fitness for binding parS DNA” value was at most 0.2.

For the variant TTCC, the “one-hybrid fitness for binding parS DNA” value was at most 0.2.

Regarding SAPK, the “one-hybrid fitness for binding parS DNA” value is at most 0.2.

Consider SYFM, for which the “one-hybrid fitness for binding parS DNA” value was at most 0.2.

Take GMNL: the “one-hybrid fitness for binding parS DNA” value was at most 0.2.

As to PHTP, the “one-hybrid fitness for binding parS DNA” value is at most 0.2.

In the case of RNDL, the “one-hybrid fitness for binding parS DNA” value was at most 0.2.

NHHK: the “one-hybrid fitness for binding parS DNA” value was at most 0.2.

On to YFYM, for which the “one-hybrid fitness for binding parS DNA” value is at most 0.2.

For QNLE, the “one-hybrid fitness for binding parS DNA” value is at most 0.2.

As for MPPW, the “one-hybrid fitness for binding parS DNA” value is at most 0.2.

For EGLM, the “one-hybrid fitness for binding parS DNA” value was at most 0.2.

FPVL: the “one-hybrid fitness for binding parS DNA” value was at most 0.2.

As for GHST, the “one-hybrid fitness for binding parS DNA” value was at most 0.2.

Turning to KAEG, the “one-hybrid fitness for binding parS DNA” value was at most 0.2.

Take IWTI: the “one-hybrid fitness for binding parS DNA” value is at most 0.2.

On to RGRN, for which the “one-hybrid fitness for binding parS DNA” value came to 0.341.

For the variant MTHV, the “one-hybrid fitness for binding parS DNA” value was at most 0.2.

For the variant SVSG, the “one-hybrid fitness for binding parS DNA” value is at most 0.2.

In the case of MSPK, the “one-hybrid fitness for binding parS DNA” value is at most 0.2.

For the variant VVPT, the “one-hybrid fitness for binding parS DNA” value was at most 0.2.

Consider TGIG, for which the “one-hybrid fitness for binding parS DNA” value is at most 0.2.

Turning to VHLY, the “one-hybrid fitness for binding parS DNA” value was at most 0.2.

For the variant CVTR, the “one-hybrid fitness for binding parS DNA” value is at most 0.2.

As for RHQD, the “one-hybrid fitness for binding parS DNA” value is at most 0.2.

As for MHLG, the “one-hybrid fitness for binding parS DNA” value was at most 0.2.

Regarding ENYE, the “one-hybrid fitness for binding parS DNA” value is at most 0.2.

For the variant CIWS, the “one-hybrid fitness for binding parS DNA” value was at most 0.2.

Consider FTQL, for which the “one-hybrid fitness for binding parS DNA” value was at most 0.2.

Regarding FRQR, the “one-hybrid fitness for binding parS DNA” value is at most 0.2.

As to ENVR, the “one-hybrid fitness for binding parS DNA” value is at most 0.2.

As for VPEL, the “one-hybrid fitness for binding parS DNA” value is at most 0.2.

In the case of MRFS, the “one-hybrid fitness for binding parS DNA” value was at most 0.2.

As to RQRR, the “one-hybrid fitness for binding parS DNA” value is at most 0.2.

Turning to QYGY, the “one-hybrid fitness for binding parS DNA” value was at most 0.2.

Turning to EITT, the “one-hybrid fitness for binding parS DNA” value was at most 0.2.

As to HAIF, the “one-hybrid fitness for binding parS DNA” value was at most 0.2.

As to KDPS, the “one-hybrid fitness for binding parS DNA” value is at most 0.2.

For YRES, the “one-hybrid fitness for binding parS DNA” value was at most 0.2.

Turning to ATAN, the “one-hybrid fitness for binding parS DNA” value was at most 0.2.

Turning to NHNE, the “one-hybrid fitness for binding parS DNA” value was at most 0.2.

Turning to NERR, the “one-hybrid fitness for binding parS DNA” value is at most 0.2.

As for MARY, the “one-hybrid fitness for binding parS DNA” value is at most 0.2.

Regarding WMTM, the “one-hybrid fitness for binding parS DNA” value is at most 0.2.

Regarding TRVY, the “one-hybrid fitness for binding parS DNA” value is at most 0.2.

Consider AKHC, for which the “one-hybrid fitness for binding parS DNA” value is at most 0.2.

As to IMRL, the “one-hybrid fitness for binding parS DNA” value was at most 0.2.

Take LTTG: the “one-hybrid fitness for binding parS DNA” value is at most 0.2.

Consider NAER, for which the “one-hybrid fitness for binding parS DNA” value was at most 0.2.

As to QVNI, the “one-hybrid fitness for binding parS DNA” value was at most 0.2.

For the variant TIKD, the “one-hybrid fitness for binding parS DNA” value is at most 0.2.

Consider QNWS, for which the “one-hybrid fitness for binding parS DNA” value is at most 0.2.

Regarding GTTG, the “one-hybrid fitness for binding parS DNA” value is at most 0.2.

In the case of SFLV, the “one-hybrid fitness for binding parS DNA” value is at most 0.2.

Regarding SFKG, the “one-hybrid fitness for binding parS DNA” value was at most 0.2.

Take CTHM: the “one-hybrid fitness for binding parS DNA” value is at most 0.2.

Take DYRN: the “one-hybrid fitness for binding parS DNA” value was at most 0.2.

Take NRPY: the “one-hybrid fitness for binding parS DNA” value is at most 0.2.

With TWEM, the “one-hybrid fitness for binding parS DNA” value is at most 0.2.

On to SSFS, for which the “one-hybrid fitness for binding parS DNA” value is at most 0.2.

Turning to QRRY, the “one-hybrid fitness for binding parS DNA” value is at most 0.2.
